# These are yes or no findings as the source states them, for the method shown. Some results given as binding are weak or reduced against the parent protein; the word gives no strength.
# T1: AtDFO (Arabidopsis thaliana) (UniProt Q8RX33)
# T1 sequence: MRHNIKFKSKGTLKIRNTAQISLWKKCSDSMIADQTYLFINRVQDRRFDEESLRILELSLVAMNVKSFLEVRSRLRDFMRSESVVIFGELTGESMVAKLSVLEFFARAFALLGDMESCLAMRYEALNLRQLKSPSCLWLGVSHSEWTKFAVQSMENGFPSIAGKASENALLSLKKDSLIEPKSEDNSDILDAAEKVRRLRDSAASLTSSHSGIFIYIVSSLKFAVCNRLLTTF
# T2: AtPRD3 (Arabidopsis thaliana) (UniProt Q0WWX5)
# T2 sequence: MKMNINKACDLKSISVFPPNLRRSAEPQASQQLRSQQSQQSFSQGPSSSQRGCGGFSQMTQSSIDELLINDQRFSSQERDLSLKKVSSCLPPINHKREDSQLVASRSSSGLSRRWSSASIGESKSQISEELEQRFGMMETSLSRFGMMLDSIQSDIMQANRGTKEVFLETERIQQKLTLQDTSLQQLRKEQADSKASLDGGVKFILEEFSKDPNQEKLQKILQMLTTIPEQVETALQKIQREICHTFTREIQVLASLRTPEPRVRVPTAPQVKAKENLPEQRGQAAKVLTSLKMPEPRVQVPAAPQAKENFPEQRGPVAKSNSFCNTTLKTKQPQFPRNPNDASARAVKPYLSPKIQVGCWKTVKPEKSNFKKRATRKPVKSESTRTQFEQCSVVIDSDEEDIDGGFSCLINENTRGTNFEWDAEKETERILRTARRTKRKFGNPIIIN
# T3: AtSPO11-1 (Arabidopsis thaliana) (UniProt Q9M4A2)
# T3 sequence: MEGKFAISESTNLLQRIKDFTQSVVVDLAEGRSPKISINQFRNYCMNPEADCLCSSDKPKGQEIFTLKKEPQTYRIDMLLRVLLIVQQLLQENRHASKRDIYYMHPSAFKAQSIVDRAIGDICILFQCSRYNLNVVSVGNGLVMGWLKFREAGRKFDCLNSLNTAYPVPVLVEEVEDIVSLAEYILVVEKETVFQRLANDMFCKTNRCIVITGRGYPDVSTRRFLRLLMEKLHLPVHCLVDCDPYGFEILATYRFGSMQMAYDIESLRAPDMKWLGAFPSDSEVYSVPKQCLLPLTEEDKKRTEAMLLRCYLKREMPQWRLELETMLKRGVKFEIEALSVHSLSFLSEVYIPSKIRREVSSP
# T4: AtSPO11-2 (Arabidopsis thaliana) (UniProt Q9M4A1)
# T4 sequence: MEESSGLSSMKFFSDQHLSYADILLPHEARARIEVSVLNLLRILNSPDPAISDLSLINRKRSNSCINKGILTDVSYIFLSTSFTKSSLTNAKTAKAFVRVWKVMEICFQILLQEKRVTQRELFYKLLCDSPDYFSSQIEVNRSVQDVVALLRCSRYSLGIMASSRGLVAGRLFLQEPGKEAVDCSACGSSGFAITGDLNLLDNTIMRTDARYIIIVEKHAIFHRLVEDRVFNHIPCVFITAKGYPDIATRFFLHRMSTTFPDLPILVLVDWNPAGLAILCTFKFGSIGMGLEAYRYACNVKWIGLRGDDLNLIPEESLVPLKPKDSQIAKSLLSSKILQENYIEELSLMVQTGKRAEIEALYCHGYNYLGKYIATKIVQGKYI
# B1: AtPRD1-D (963–1109 aa) (domain or fragment, UniProt O23277 963-1109)
# chain: VSNSYLVSAINTVVDVACSKGPALTQCQDETNIGEALAFTLLLYFFSLRSLQIVLAGAVDWQTFFGTSTSLETLPVVCIHCHNLCRLMHFGAPQIKLIASYCLLELLTGLSEQVDIKKEQLQCSSSYLKSMKAVLGGLVFCDDIRVA
# B2: AtPRD1-C (813–962 aa) (domain or fragment, UniProt O23277 813-962)
# chain: ISEGDNYAATLLVNLLTQLAEKEEQENDVISILNLMNTIVSIFPTASNNLSMNGIGSVIHRLVSGFSNSSLGTSFRTLLLLVFNILTSVQPAVLMIDESWYAVSIKLLNFLSLRDTAIKQNHEDMVVIGILSLVLYHSSDGALVEASRNI
# B3: AtPRD1-E (1110–1330 aa) (domain or fragment, UniProt O23277 1110-1330)
# chain: TNSALCLSMILGWEDMEGRTEMLKTSSWYRFIAEEMSVSLAMPCSASSTYVNHHKPAVYLTVAMLRLKNKPVWLRTVFDESCISSMIQNLNGINISREIVILFRELMQAELLNSQQVTKLDRAFQECRKQMHRNGTRDETVEEQVQRKIPSIHDHSEFCNYLVHLMVSNSFGHPSESETYTQKKKQILDEMEQFSELISTREGRVSPIQEETRQMQTERIV
# B4: AtPRD1-B (389–812 aa) (domain or fragment, UniProt O23277 389-812)
# chain: FPSVIRVLHYVGEVPCHPFQIQTLKLISSCISDFPGIASSSQVQEIALVLKKMLERYYSQEMGLFPDAFAIICSVFVSLMKTPSFGETADVLTSLQESLRHSILASLSLPEKDSTQILHAVYLLNEVYVYCTASTSINKTICIELRHCVIDVCTSHLLPWFLSDVNEVNEEATLGIMETFHSILLQNSDIQAKEFAELLVSADWFSFSFGCLGNFCTDNMKQRIYLMLSSLVDILLEQKTGSHIRDALHCLPSDPQDLLFLLGQASSNNQELASCQSAALLIFHTSSIYNDRLADDKLVLASLEQYIILNKTSLICAISDSPALLNLVNLYGLCRSLQNERYQISYSLEAERIIFHLLNEYEWDLGSINIHLESLKWLFQQESISKSLIYQIQKISRNNLIGNEVHNVYGDGRQRSLTYWFAKL
# Experiments:
# Assay in all cases: two-hybrid; Gal4 vector system (Clontech), pGBKT7 and pGADT7, yeast AH109; growth on SD/-Trp-Leu-His-Ade plates, 3 to 7 days, 30 °C; cells serially diluted
# [1] = target: T1, AtDFO (Arabidopsis thaliana)
# [2] = target: T2, AtPRD3 (Arabidopsis thaliana)
# [3] = target: T3, AtSPO11-1 (Arabidopsis thaliana)
# [4] = target: T4, AtSPO11-2 (Arabidopsis thaliana)
Binder,binding [1],binding [2],binding [3],binding [4]
B1,binds weakly,binds weakly,,
B2,no binding,no binding,no binding,no binding
B3,no binding,no binding,no binding,no binding
B4,no binding,no binding,no binding,no binding
